Data: PubChem BioAssay AID686978 (National Center for Advancing Translational Sciences (NCATS), 2013)
Where “and” joins values, the source holds several entries; their conditions need not be identical. Equal entries are not always repeated. About 64,000 (15%) of roughly 420,000 compounds were called active. Inconclusive results, whose numbers are uncertain, are shown with a selection of clear calls. The call rests on the fitted dose curve; in most records, active means well fitted inhibition curve with a large enough effect; inconclusive means small, poorly fitted or top-dose-only effect; inactive means flat fitted curve, though single readings scatter. A potency beside an inconclusive call is a rough fit, not a confirmed value.

Assay: qHTS for Inhibitors of human tyrosyl-DNA phosphodiesterase 1 (TDP1): qHTS in cells in absence of CPT; further: nearly all actives have a fitted effect of over 55% in size
Details: DT40 Tdp1-/- hTDP1 cells, no CPT, ATP luminescence, 48 h; activity change, negative = growth inhibition: at 46.2 µM (top of the series) unless noted
Procedure, shortened: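 Luminescent ATP content (CellTiter-Glo) served as the growth readout. Knockout chicken DT40 cells expressing human TDP1 were exposed to compounds without camptothecin for a minimum 48 hr at 37 °C.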
On the % scale 0 is the no-effect control and ±100 the full control effect; potency means the concentration at half of the fitted maximal effect; tags describe the fitted curve by direction and shape.

Question: With `COC(=O)c1ccc(NC(=O)C2CCN(c3ncnc4c3nc3n4CCCCC3)CC2)cc1` as the compound, how does the Potency read?
Answer: inconclusive: 20.6 µM [inhibitor, single point]

Question: Which “activity change, negative = growth inhibition” value does the source give for `O=C(C1CCN(S(=O)(=O)c2ccccc2)CC1)N1CCc2ccccc21` here?
Answer: inactive: -22.1%

Question: For `CCOC(=O)CSc1nc2ccc(NC(=O)c3ccc(Cl)cc3)cc2s1`, which Potency is on record?
Answer: inconclusive: 9.2 µM [inhibitor, partial curve]

Question: For `Nc1c(C(=O)Nc2cccc(F)c2)nnn1-c1ccc2c(c1)OCCO2`, which “activity change, negative = growth inhibition” value is on record?
Answer: inactive: -23.7%

Question: For `Nc1cccn2c(-c3ccc(Cl)c(Cl)c3)cnc12`, which Potency is on record?
Answer: inconclusive: 25.9 µM [inhibitor, single point]

Question: Which Potency does the source give for `COCc1ccc(C(=O)NC2CC(C)(C)Cc3c2cnn3-c2ccc(C)cc2)o1` (stereo unspecified) here?
Answer: inconclusive: 29.1 µM [inhibitor, single point]

Question: For `COC(=O)c1ccc(/C=N/Nc2nc3ccccc3[nH]2)cc1`, which Potency is on record?
Answer: inconclusive: 1.46 µM [inhibitor, partial curve, poor fit]

Question: With `CCCCOC(=O)CCc1n[nH]c(=O)[nH]c1=O` as the compound, how does the “activity change, negative = growth inhibition” value read?
Answer: inactive: -2.9%

Question: With `O=C(O)Cc1ccc(O)c(F)c1` as the compound, how does the “activity change, negative = growth inhibition” value read?
Answer: inactive: 4.48%

Question: With `Cc1cc(C)cc(Nc2cc(C(=O)NC3CCCCC3)c3ccccc3n2)c1` as the compound, how does the Potency read?
Answer: inconclusive: 3.66 µM [inhibitor, full curve, poor fit]

Question: Which Potency does the source give for `COc1ccc(NC(C)=O)cc1NC(C)C(=O)Nc1cc(C(F)(F)F)ccc1N1CCOCC1` (stereo unspecified) here?
Answer: inconclusive: 29.1 µM [inhibitor, single point]

Question: With `Cc1ccc(C(=O)Nc2nnc(-c3ccc(C(C)(C)C)cc3)s2)cc1` as the compound, how does the Potency read?
Answer: inconclusive: 3.66 µM [inhibitor, full curve]

Question: For `N#CC1=C2SC=C(c3ccc(Br)cc3)N2CCCC1=O`, which Potency is on record?
Answer: active: 23.1 µM

Question: For `NCCCn1c(C(=O)c2cc(Cl)c(N)c(Cl)c2)c2ccccc2[n+]1[O-]`, which Potency is on record?
Answer: inconclusive: 29.1 µM [inhibitor, single point]

Question: Which Potency does the source give for `O=C(Nc1ccc2c(c1)OCO2)C1CCCCN1S(=O)(=O)c1ccccc1` (stereo unspecified) here?
Answer: inconclusive: 29.1 µM [inhibitor, single point]

Question: For `CCCn1c(SC/C(O)=C(\C#N)c2nc3ccccc3[nH]2)n[nH]c1=O`, which “activity change, negative = growth inhibition” value is on record?
Answer: inactive: -9.56%

Question: With `CC(=O)Nc1ccc2c(c1)C(C)(C)C(C)N2C` (stereo unspecified) as the compound, how does the Potency read?
Answer: inconclusive: 20.6 µM [inhibitor, single point]

Question: For `CCCSC1=C(C#N)C(c2cccs2)CC(=O)N1` (stereo unspecified), which Potency is on record?
Answer: inconclusive: 29.1 µM [inhibitor, single point]

Question: For `COc1ccc(CCC(=O)NCc2cn3ccccc3n2)cc1`, which “activity change, negative = growth inhibition” value is on record?
Answer: inactive: -4.35%

Question: For `Cc1csc(NC(=O)CSc2nnc(C)c(=O)n2N)n1`, which “activity change, negative = growth inhibition” value is on record?
Answer: inactive: -7.21%

Question: Which Potency does the source give for `COc1ccccc1/C=C/C1(C(=O)NC2CCCC2)CC(=O)N1c1ccccc1` (stereo unspecified) here?
Answer: active: 7.31 µM

Question: For `COc1ccccc1OCCn1c(CCNC(=O)C2CCCCC2)nc2ccccc21`, which Potency is on record?
Answer: inconclusive: 22.4 µM [inhibitor, single point]

Question: Which Potency does the source give for `Cc1cc(Nc2nc3ccccc3c3nnc(C)n23)ccc1Br` here?
Answer: active: 18.4 µM

Question: Which Potency does the source give for `COc1ccc(C)cc1NC(=O)C1CCN(C(=O)c2ccco2)CC1` here?
Answer: inconclusive: 0.164 µM [inhibitor, full curve, poor fit]

Question: Which “activity change, negative = growth inhibition” value does the source give for `COc1ccc(-n2c(CN3CCOCC3)nc3ccc([N+](=O)[O-])cc3c2=O)c(OC)c1` here?
Answer: inactive: -7.46%

Question: Which Potency does the source give for `Cc1cc(C)cc(NC(=O)CSc2c(C(C)C)cnc3c2c(=O)n(C)c(=O)n3C)c1` here?
Answer: inconclusive: 18.4 µM [inhibitor, single point]

Question: Which Potency does the source give for `Cc1[nH]nc(-c2ccc(O)cc2O)c1-c1ccc(Cl)cc1` here?
Answer: inconclusive: 23.1 µM [inhibitor, single point]

Question: With `Cc1ccc(CN2C(=O)C(CC(C)C)Nc3ncnc(N4CCOCC4)c32)cc1` (stereo unspecified) as the compound, how does the Potency read?
Answer: inactive

Question: For `COCCCn1c(=O)c2sccc2n2c(CCCC(=O)NCc3ccccc3OC)nnc12`, which “activity change, negative = growth inhibition” value is on record?
Answer: inactive: 16%

Question: Which Potency does the source give for `COc1ccc(C(=O)NC2CCCc3c2cnn3-c2cc(F)cc(F)c2)c(OC)c1OC` (stereo unspecified) here?
Answer: active: 14.6 µM

Question: Which “activity change, negative = growth inhibition” value does the source give for `CN(C)C(=O)c1ccc(NC(=O)c2ccccc2Sc2ccccc2C#N)cc1` here?
Answer: inactive: -11.2%

Question: Which “activity change, negative = growth inhibition” value does the source give for `COCCCNC(=O)/C(=C\c1cccn1C)NC(=O)c1cccs1` here?
Answer: inactive: -11.3%

Question: With `N#Cc1ccc(C(=O)OCC(=O)N2CCOCC2)cc1` as the compound, how does the “activity change, negative = growth inhibition” value read?
Answer: inactive: 3.12%

Question: For `CCOC(=O)c1ccccc1NC(=O)CSc1nnc(CC)n2c1cc1occc12`, which Potency is on record?
Answer: inconclusive: 18.4 µM [inhibitor, single point]

Question: For `CCc1cccc(CC)c1NC(=O)CN1CC(C)SC1=NC1CCCCC1` (stereo unspecified), which Potency is on record?
Answer: active: 13 µM

Question: Which Potency does the source give for `CCCc1c(Cc2cccc(F)c2)ncn1Cc1cccc(-c2ccccc2)c1` here?
Answer: active: 3.66 µM

Question: Which Potency does the source give for `Cc1nn(C)c(Oc2ccccc2)c1CCNC(=O)CCl` here?
Answer: inconclusive: 29.1 µM [inhibitor, single point]

Question: Which Potency does the source give for `Cc1c(CC(=O)NCCCC(=O)O)c(=O)oc2cc3c(cc12)CCC(C)(C)O3` here?
Answer: inconclusive: 16.4 µM [inhibitor, single point]

Question: Which Potency does the source give for `CC(C)C1C(=O)N(Cc2cn(CCC3OCCCO3)nn2)CCS(=O)(=O)N1Cc1ccc(-c2ccc(Cl)c(Cl)c2)cc1` (stereo unspecified) here?
Answer: active: 18.4 µM

Question: Which “activity change, negative = growth inhibition” value does the source give for `COc1cc(C2NC(=O)NC(c3ccccc3)=C2C(C)=O)c(Br)c(Br)c1O` (stereo unspecified) here?
Answer: inactive: 2.4%

Question: Which Potency does the source give for `CC1=C([N+](=O)[O-])C(c2ccc3c(c2)OCO3)N(C)C(=O)N1C` (stereo unspecified) here?
Answer: active: 20.6 µM

Question: For `CS(=O)(=O)c1ccccc1-c1nc(-c2ccc(C(F)(F)F)cc2)no1`, which Potency is on record?
Answer: active: 16.4 µM

Question: Which Potency does the source give for `CCCCc1ccc(C(=O)Nc2ccc3nc(N4CCN(CC)CC4)cc(C)c3c2)cc1` here?
Answer: active: 2.91 µM

Question: For `COc1ccc(OC)c(NC(=O)C2CCCN(S(=O)(=O)c3ccc(-n4cnnn4)cc3)C2)c1` (stereo unspecified), which activity change, negative = growth inhibition is on record?
Answer: inconclusive: -32.9% [inhibitor]

Question: With `O=C(Nc1cccc(C(F)(F)F)c1)OCc1ccncc1` as the compound, how does the Potency read?
Answer: inconclusive: 14.6 µM [inhibitor, partial curve]

Question: With `CC(C)(C)n1nnnc1CN(Cc1cccnc1)Cc1ccccc1Cl` as the compound, how does the Potency read?
Answer: inconclusive: 29.1 µM [inhibitor, single point]

Question: Which Potency does the source give for `CCC1CN(C(=O)N2CCC(C(=O)NCCc3ccc(OC)c(OC)c3)CC2)c2ccccc2O1` (stereo unspecified) here?
Answer: inconclusive: 29.1 µM [inhibitor, single point] and inconclusive: 25.9 µM [inhibitor, single point]

Question: With `Cc1ccc(C)c(N2CCN(C(=O)C3CCC(CNS(=O)(=O)c4cccs4)CC3)CC2)c1` (stereo unspecified) as the compound, how does the Potency read?
Answer: inconclusive: 18.4 µM [inhibitor, single point]

Question: With `O=C(NNC(=O)C1CCN(S(=O)(=O)c2ccccc2C(F)(F)F)CC1)c1ccccc1O` as the compound, how does the Potency read?
Answer: inconclusive: 18.4 µM [inhibitor, single point]

Question: With `CCN(C(=O)Cn1nc(C)n2c(cc3cc(C)ccc32)c1=O)c1ccccc1` as the compound, how does the Potency read?
Answer: inconclusive: 16.4 µM [inhibitor, single point]

Question: Which Potency does the source give for `Cc1ccc(OC(C)C(=O)Nc2ncc(Cl)cc2Cl)c([N+](=O)[O-])n1` (stereo unspecified) here?
Answer: inconclusive: 29.1 µM [inhibitor, single point]

Question: Which Potency does the source give for `Cc1cc(F)ccc1-c1cc(C(=O)Nc2ccc(F)cc2)[nH]n1` here?
Answer: inconclusive: 20.6 µM [inhibitor, single point]

Question: With `O=C(CNC1CCCCCC1)Nc1ccccc1N1CCOCC1` as the compound, how does the Potency read?
Answer: inconclusive: 14.6 µM [inhibitor, single point]

Question: Which Potency does the source give for `CCOC(=O)N1CCc2c(sc3c2c(=O)n(-c2ccc(CC)cc2)c(=O)n3Cc2cccc(Cl)c2)C1` here?
Answer: inconclusive: 4.61 µM [inhibitor, partial curve]

Question: For `CC1CCCC(NC(=O)CSC2=Nc3ccccc3C3CC=NN23)C1C` (stereo unspecified), which Potency is on record?
Answer: inconclusive: 20.6 µM [inhibitor, single point]

Question: For `Cc1cc(C)n(-c2ccc(C(=O)OCC(=O)Nc3ccc(S(N)(=O)=O)cc3)cc2)n1`, which “activity change, negative = growth inhibition” value is on record?
Answer: inactive: -12.5%

Question: With `Cc1cc(N2CCN(c3ccccc3)CC2)nc(-c2ccccc2O)n1` as the compound, how does the Potency read?
Answer: inconclusive: 29.1 µM [inhibitor, single point]

Question: For `CCc1ccc(/C=N/NC(=O)c2cc(C3CC3)nc3ccccc23)s1`, which Potency is on record?
Answer: active: 2.31 µM

Question: For `CNC(=O)CCN(Cc1ccco1)S(=O)(=O)c1ccc(OC)c(OC)c1`, which “activity change, negative = growth inhibition” value is on record?
Answer: inactive: -2.87%

Question: With `Cc1ccccc1OCC(=O)Nc1nc(C)c(C(=O)N(C)C)s1` as the compound, how does the activity change, negative = growth inhibition read?
Answer: inconclusive: -32.8% [inhibitor]

Question: For `CCc1ccc(N(C(=O)c2csnn2)C(C(=O)NC(C)(C)CC)c2ccccn2)cc1` (stereo unspecified), which Potency is on record?
Answer: inconclusive: 29.1 µM [inhibitor, single point]

Question: Which “activity change, negative = growth inhibition” value does the source give for `Cc1ccc(C)c(-n2c(-c3cccnc3)n[nH]c2=S)c1` here?
Answer: inactive: -20.7%

Question: For `C=CCNc1c2c(nc3ncnn13)CC(C)CC2` (stereo unspecified), which Potency is on record?
Answer: inconclusive: 29.1 µM [inhibitor, single point]

Question: For `CCOC(=O)c1cccnc1SC(CC)C(=O)NCc1ccco1` (stereo unspecified), which Potency is on record?
Answer: inconclusive: 22.4 µM [inhibitor, single point]

Question: For `COc1ccc(N2CCN(C(=O)c3ccccc3F)CC2)c([N+](=O)[O-])c1`, which Potency is on record?
Answer: inconclusive: 29.1 µM [inhibitor, single point]

Question: For `Cn1c(CS/C(N)=N/N=C/c2ccccc2)c(Br)c(=O)n1-c1ccccc1`, which Potency is on record?
Answer: inconclusive: 18.4 µM [inhibitor, partial curve]

Question: With `COC(=O)c1cc(NC(=O)Nc2cc(OC)ccc2OC)cc(C(=O)OC)c1` as the compound, how does the Potency read?
Answer: inconclusive: 32.6 µM [inhibitor, partial curve, poor fit]

Question: For `Cc1ccc(C)c(N2CCN(C(=O)c3cc4cc5ccc(C)cc5nc4o3)CC2)c1`, which Potency is on record?
Answer: inconclusive: 29.1 µM [inhibitor, single point]

Question: With `COc1ccc(OS(=O)(=O)Cc2ccccc2)cc1` as the compound, how does the Potency read?
Answer: inconclusive: 9.2 µM [inhibitor, full curve, poor fit]

Question: Which “activity change, negative = growth inhibition” value does the source give for `Cc1cccc(C)c1NC(=O)CNC(=O)c1ccc(N2CCOCC2)c([N+](=O)[O-])c1` here?
Answer: inactive: -15.6%

Question: Which Potency does the source give for `CC(=O)Nc1ccc(N2CCCCC2)c(C(=O)Nc2cccc(C)c2)c1` here?
Answer: active: 9.2 µM
